Source: the supplement of paper PMC8821664
Some of the results follow. Repeats are few or missing, and single values can be far off.
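Note: monoclonal Beas-2B line stably carrying CMV promoter-driven AQP5-HiBiT, 5,000 cells per well in 384-well plates, lytic HiBiT plus LgBiT NanoLuc luminescence, FDA-approved drug library screen.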

The compounds below were run on Beas-2B AQP5-HiBiT reporter cells (assay: AQP5-HiBiT luminescence relative to vehicle (ratio to vehicle); higher = higher AQP5-HiBiT protein abundance). Conditions: 10 µM; 18 h.
In the case of `Cc1cc2nc3c(=O)[nH]c(=O)nc-3n(C[C@H](O)[C@H](O)[C@H](O)CO)c2cc1C` [Riboflavin], the AQP5-HiBiT luminescence is reported as 1.07.
Compound `CC(=O)NO` [Acetohydroxamic acid] has an AQP5-HiBiT luminescence of 0.676.
With `Clc1ccc(COC(Cn2ccnc2)c2ccc(Cl)cc2Cl)c(Cl)c1` (stereo unspecified) [Miconazole nitrate] the AQP5-HiBiT luminescence was 1.29.
`O=C1N=C(O)NC1(c1ccccc1)c1ccccc1` [Phenytoin sodium] showed an AQP5-HiBiT luminescence of 1.01.
For `Nc1nc(=O)c2c([nH]1)NCC(CNc1ccc(C(=O)N[C@@H](CCC(=O)O)C(=O)O)cc1)N2C=O` (stereo partly specified) [Calcium folinate], the AQP5-HiBiT luminescence was 0.485.
Work on `O.O.O.O.O=C([O-])CC(O)(CC(=O)[O-])C(=O)[O-].[Li+].[Li+].[Li+]` [Lithium citrate tribasic tetrahydrate] yielded an AQP5-HiBiT luminescence of 0.841.
